Assay results as given in PubChem BioAssay AID1345083 (National Center for Advancing Translational Sciences (NCATS), 2018).
About 6,200 (6.6%) of roughly 94,000 compounds were called active. The inconclusive results got no clear call from the source; some entries with a clear call stand among them for comparison. Calls come from the whole dose curve; as a rule, active = well fitted inhibition curve with a large enough effect; inconclusive = small, poorly fitted or top-dose-only effect; inactive = flat fitted curve, though single readings scatter. A potency beside an inconclusive call is a rough fit, not a confirmed value.
% is set by controls: 0 for no effect and ±100 for the full control effect; potency is the fitted concentration of half-maximal effect; tags give direction and shape of the fitted curve.

Test: Cytotoxic Profiling in HEK 293 Cell Line of Diverse Libraries Using Quantitative High-Throughput Screening; note: nearly all actives have a fitted effect of over 60% in size
Conditions: HEK 293 viability, ATP luminescence (CellTiter-Glo), 48-72 h; activity change, negative = cytotoxicity: at 115 µM (top of the series) unless noted; series mostly up to 115 µM
Summary of the method: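 Cells seeded first (HEK 293, 250 cells/well), then compound added by pintool. Incubation ran 48 or 72 hr at 37 degree Celsius. CellTiter-Glo was added and luminescence imaged after 10 min at room temperature.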
With `CCOCCCNC(=O)C1CCc2ncc(-c3ccsc3)n2C1` (centres undefined) the “activity change, negative = cytotoxicity” value was inactive: 0.12%. In the case of `COC(=O)NC1CCN(Cc2ccc(-c3ccsc3)cc2)C1` (centres undefined), the Potency is reported as active: 100 µM. In the case of `COc1ccc(NC(=O)CN2C(=O)NC3(CCOCC3)C2=O)c(OC)c1`, the “activity change, negative = cytotoxicity” value is reported as inactive: -2.03%. With `CCN(CC)c1cc(CCC(=O)NCc2ccccc2OC)ccn1` the “activity change, negative = cytotoxicity” value was inactive: -3.85%. With `COc1ncccc1-c1nc2cc(C(=O)NCc3ccc(F)cc3)ccc2o1` the Potency was inconclusive: 50.1 µM [inhibitor, partial curve, poor fit]. With `COCCNC(=O)c1ccc2oc(-c3ccncc3)nc2c1` the “activity change, negative = cytotoxicity” value was inactive: -13.2% [at 172 µM]. With `O=C1COCC2(CN1Cc1ccccc1)CN(C(=O)c1ccc(F)c(Cl)c1)C2` the “activity change, negative = cytotoxicity” value was inactive: -5.18% [at 172 µM]. In the case of `COC(=O)[C@@H]1Cc2c([nH]c3ccccc23)[C@H]2C[C@@H](NCCNC(C)=O)C[C@@H](c3ccccc3)N21`, the Potency is reported as inconclusive: 79.4 µM [inhibitor, partial curve, poor fit]. In the case of `CC(C)N1CCC(CCN2C(=O)[C@H]3CN(S(=O)(=O)c4ccccc4)C[C@H]3C2=O)CC1`, the “activity change, negative = cytotoxicity” value is reported as inactive: 5.62%. For `COc1ccc(CNC(=O)O[C@H]2COCCN(c3nc4ccccc4s3)C2)cc1`, the Potency was active: 89.1 µM. For `O=C1NCCCCCCN(C(=O)NC2CCCCC2)[C@H]2C[C@H](C(=O)N3CCc4ccccc4C3)C[C@@H]12`, the “activity change, negative = cytotoxicity” value was inactive: -12.6%. In the case of `CC(C)NC(=O)N1CCN(Cc2ccccc2-c2cccnc2)CC1`, the “activity change, negative = cytotoxicity” value is reported as inactive: -15.3%. In the case of `O=C(NCc1ccccn1)c1ccc2nnc(C3CCCC3)n2c1`, the “activity change, negative = cytotoxicity” value is reported as inactive: 1.91% [at 172 µM]. With `Nc1nc(C(=O)N[C@H]2CCOC[C@H]2C2CCOCC2)cs1` the “activity change, negative = cytotoxicity” value was inactive: -6.46%. In the case of `O=C(C1CCCC1)N1CC2(CCN(C3COC3)C2)Cc2ccccc21` (centres undefined), the “activity change, negative = cytotoxicity” value is reported as inactive: -26.5%. With `Cc1cccc(CNC(=O)CCc2conc2-c2cccc(F)c2)c1` the “activity change, negative = cytotoxicity” value was inactive: -5.07%. For `Cn1cc(-c2ccc3c(n2)CN(Cc2ccccc2)C(=O)CO3)cn1`, the Potency was inconclusive: 89.1 µM [inhibitor, partial curve, poor fit]. For `CC#CCn1cc2c3c(cccc31)[C@H](CC(C)C)N[C@H](C(=O)NCCNC(C)=O)C2`, the Potency was active: 100 µM. For `O=C(c1ccco1)N1CC(c2nnc(-c3ccncc3)o2)C2(CCOCC2)C1` (centres undefined), the “outcome” value was “inactive”. With `COc1ccc(N2CCN(c3nc(C(=O)NCc4ccccc4C)cs3)CC2)cc1` the Potency was active: 28.2 µM. For `CC(=O)NCCC(=O)N1CCC(n2c(=O)[nH]c3ccccc32)CC1`, the “activity change, negative = cytotoxicity” value was inactive: 1.65% [at 172 µM]. With `CN(Cc1nc2ccc(F)cc2[nH]1)c1cc(C2CC(O)C2)ncn1` (centres undefined) the “activity change, negative = cytotoxicity” value was inactive: -2.86%. In the case of `Cc1nc(-c2ccccc2)n(Cc2cc(F)cc(F)c2)c(=O)c1CCO`, the Potency is reported as inconclusive: 56.2 µM [inhibitor, partial curve, poor fit]. In the case of `O[C@H]1CCC2CC1[C@@H](O)CN2CC(c1ccccc1)c1ccccc1` (some centres undefined), the Potency is reported as inconclusive: 89.1 µM [inhibitor, single point]. For `CN(Cc1cc2n(n1)CCNC2)Cc1nc2ccsc2c(=O)[nH]1`, the “activity change, negative = cytotoxicity” value was inactive: -34.4%. In the case of `Cc1ccccc1CC(=O)N1CCC[C@H]1c1nc(-c2ccccc2)no1`, the Potency is reported as inconclusive: 11.2 µM [inhibitor, full curve, poor fit]. With `CCOC(=O)c1ccccc1NC(=O)Cn1nc2n(c1=O)CCCCC2` the “activity change, negative = cytotoxicity” value was inactive: 3.18%. In the case of `O=C(NCC12CCCC=C1N(CC1CC1)C(=O)CC2)C1CCOCC1` (centres undefined), the “activity change, negative = cytotoxicity” value is reported as inactive: -7.78%. With `CCOC(=O)C1(Cc2ccccc2F)CCCNC1` (centres undefined) the “outcome” value was “inactive”. For `CN1CCC(N2CC[C@H](CO)[C@H](N(C)C)C2)CC1`, the “activity change, negative = cytotoxicity” value was inactive: -6.4%. In the case of `COc1ccc(CN2Cc3[nH]nc(-c4cccc(C(F)(F)F)c4)c3CC2=O)cc1`, the Potency is reported as inconclusive: 56.2 µM [inhibitor, partial curve, poor fit]. With `CNC(=O)CN(C)Cc1cc(Cl)ccc1OCC(O)CN1CCCCCC1` (centres undefined) the Potency was inconclusive: 89.1 µM [inhibitor, single point]. In the case of `O=C1CC2(CCN(CC3CC3)CC2)Oc2ccccc2N1`, the “activity change, negative = cytotoxicity” value is reported as inactive: -25.2% [at 172 µM]. In the case of `COc1ccc([C@H]2C[C@@H](O)[C@@H](O)[C@@H]2NC(=O)c2ccccc2OC)cc1`, the Potency is reported as inconclusive: 35.5 µM [inhibitor, single point]. In the case of `O=C(NCc1ccc(Cl)cc1)c1ccc2nnc(-c3ccc(Cl)cc3)n2c1`, the Potency is reported as inconclusive: 50.1 µM [inhibitor, partial curve, poor fit]. In the case of `CCOC(=O)C1=C(C)N=C2SC=C(CC(=O)NCC3CC3)N2C1c1ccccc1OC` (centres undefined), the Potency is reported as inconclusive: 100 µM [inhibitor, partial curve, poor fit]. For `CS(=O)(=O)NC[C@H]1O[C@@H](CO)[C@@H](O)C1N1CCN(c2ccccc2)CC1` (some centres undefined), the “outcome” value was “inactive”. For `CN(C)[C@H]1CCCCN(C(=O)c2ccc(CSc3ccccn3)cc2)C1`, the Potency was inconclusive: 79.4 µM [inhibitor, partial curve]. For `OCC1(Cc2ccccc2)CCCN(Cc2cnn(-c3cccc(Cl)c3)c2)C1` (centres undefined), the Potency was active: 79.4 µM. For `CN1C(=O)C(CC(=O)N2CCCCC2)=C2CCCCC21` (centres undefined), the “activity change, negative = cytotoxicity” value was inactive: -4.18%. With `CC(=O)Nc1ccc(C2(C(=O)NCc3ccc(C)o3)CCC2)cc1` the “activity change, negative = cytotoxicity” value was inactive: -1.85%. In the case of `CC1CCC2(CC1)NC(=O)N(CC(=O)Nc1ccccc1Cl)C2=O` (centres undefined), the Potency is reported as inconclusive: 56.2 µM [inhibitor, partial curve, poor fit]. With `CN(C)c1ccc(CN2CCn3c(nn(-c4cccc(Cl)c4)c3=O)C2)cc1` the Potency was inconclusive: 89.1 µM [inhibitor, single point]. For `Cc1ccccc1C(=O)NCCNC(=O)c1cccc(-c2ncccc2C#N)c1`, the “activity change, negative = cytotoxicity” value was inactive: 2.11%. With `O=C1CC2(CCN(C(=O)c3ccc(C(F)(F)F)cc3)CC2)Oc2ccccc21` the Potency was inconclusive: 35.5 µM [inhibitor, partial curve, poor fit]. With `CCNC(=O)[C@@H]1CCCN1C1(C(=O)NC)CCOCC1` the “outcome” value was “inactive [at 230 µM]”. For `COCCN(C)C(=O)c1ccc2c(c1)C1(CCN(CC3CC3)C1)CN2Cc1ccccc1` (centres undefined), the Potency was inconclusive: 112 µM [inhibitor, partial curve, poor fit]. In the case of `CCOCCN1C(=O)COC[C@@H]1[C@H](O)c1ccc(NC(=O)Cc2ccccc2)cc1`, the “activity change, negative = cytotoxicity” value is reported as inactive: 0.541% [at 172 µM]. For `O=C(NCCc1ccc(Cl)cc1)c1nc(-c2ccc(Cl)cc2)c2ccccn12`, the Potency was inconclusive: 44.7 µM [inhibitor, full curve, poor fit]. For `CN1C(=O)Cc2ccccc2C1C(=O)NCc1ccc(F)cc1Cl` (centres undefined), the Potency was inconclusive: 79.4 µM [inhibitor, single point]. For `COc1ccccc1NC(=O)Cn1c(-c2ccc(Cl)cc2)nc(C)cc1=O`, the Potency was inconclusive: 44.7 µM [inhibitor, partial curve, poor fit]. For `CCc1noc(-c2cn(C3CCN(C(=O)c4ccc(C)cc4C)C3)nn2)n1` (centres undefined), the Potency was inconclusive: 35.5 µM [inhibitor, full curve]. For `Cc1noc(C2CCCN2C(=O)c2cccc(CC3CCNCC3)c2)n1` (centres undefined), the “activity change, negative = cytotoxicity” value was inactive: -16.3%. With `CC(NC(=O)Cc1ccc(N(Cc2ccc(F)cc2)C(=O)c2ccco2)cc1)c1ccccc1` (centres undefined) the Potency was inconclusive: 56.2 µM [inhibitor, partial curve, poor fit]. In the case of `O=[S+]1([O-])NCC2(CCN(Cc3c(F)cccc3F)C2)Oc2ccncc21` (centres undefined), the “outcome” value is reported as “inactive”. In the case of `COCCNc1ncccc1-c1noc([C@@H]2CCCN2Cc2cccc(C#N)c2)n1`, the Potency is reported as active: 70.8 µM. In the case of `Cc1cc(C)n(C2CCN(c3nccc(-c4ccccn4)n3)C2)n1` (centres undefined), the “activity change, negative = cytotoxicity” value is reported as inactive: -26.4%. In the case of `CCC1(C(=O)NCc2ccc(C(C)C)cc2)CCCCC(=O)N1` (centres undefined), the Potency is reported as inconclusive: 100 µM [inhibitor, partial curve, poor fit]. With `CC(=O)N1CCCN(Cc2nnc(C(=O)N3CCC[C@@H]3c3cccc(F)c3)n2-c2cccnc2)CC1` the Potency was active: 35.5 µM. In the case of `Cc1ccc(C(=O)N2CCCn3cc(-c4cccc(C#N)c4)nc32)cc1`, the “activity change, negative = cytotoxicity” value is reported as inactive: -11.8%. For `O=C(c1ccc(Cl)cc1)N1CC(CO)C2(CCNCC2)C1` (centres undefined), the Potency was inconclusive: 63.1 µM [inhibitor, partial curve, poor fit]. For `O=C(c1ccc(Cl)nc1)N1CCN(Cc2ccccc2-c2ccccc2F)CC1`, the Potency was inconclusive: 50.1 µM [inhibitor, partial curve, poor fit]. With `CCCNC(=O)CN1CN(c2ccccc2)C2(CCN(C(=O)Nc3ccc(CC)cc3)CC2)C1=O` the Potency was inconclusive: 79.4 µM [inhibitor, partial curve]. In the case of `COCC1CN(C2CCC2)CC12CCN(C(=O)Cc1ccccc1)CC2` (centres undefined), the Potency is reported as inconclusive: 3.55 µM [inhibitor, full curve, poor fit]. For `Cc1ccc(C2Cn3cnc(C(=O)N4CCC(C(=O)NCc5ccc(F)cc5F)CC4)c3CO2)cc1` (centres undefined), the “activity change, negative = cytotoxicity” value was inactive: -23.4%. In the case of `O=C1CCCCCN1C1CCN(Cc2cccnc2)CC1`, the “activity change, negative = cytotoxicity” value is reported as inactive: -18.2% [at 172 µM]. In the case of `COCCNc1ccc(-c2noc([C@@H]3CCCN3Cc3ccccc3F)n2)cn1`, the Potency is reported as inconclusive: 126 µM [inhibitor, single point]. In the case of `COc1ccc(-c2[nH]nc3ncc(-c4cncnc4)nc23)cc1F`, the Potency is reported as inconclusive: 50.1 µM [inhibitor, partial curve, poor fit]. For `CCn1ncc(NC(=O)Cn2ncc3cc(-c4cccc(OC)c4)ccc32)n1`, the “activity change, negative = cytotoxicity” value was inactive: -56.7%. With `O=C1CC(c2ccccc2)N(C(=O)CNC(=O)c2nccc3ccccc23)CCCCCCN1` (centres undefined) the Potency was inconclusive: 89.1 µM [inhibitor, partial curve, poor fit]. With `CC(C)CNC(=O)c1cc(C2CC2)nc2c1c(C1CCCN1)nn2-c1ccccc1` (centres undefined) the Potency was active: 22.4 µM. With `CC(C)NC(=O)C1CCC(=O)N1C1CCN(C(=O)Cc2ccccc2F)CC1` (centres undefined) the “activity change, negative = cytotoxicity” value was inactive: -21.4%. With `Cn1ncc2c(C(=O)NCc3ccccc3Cl)cc(-c3ccc(C(F)(F)F)cc3)nc21` the Potency was inconclusive: 28.2 µM [inhibitor, full curve]. In the case of `CN(Cc1ccccc1)C(=O)C1=NO[C@@H]2CN(Cc3ccc(F)cc3)C[C@H]12`, the Potency is reported as inconclusive: 112 µM [inhibitor, partial curve].
